Measured values: PubChem BioAssay (NCI)
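All cell lines were grown in 96-well plates and treated with compound for 48 hours. TGI: concentration producing complete growth inhibition.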 Certain results were filed several times, with different values. The other results are left out here. An entry can have further records. The tests behind the records often covered other concentration ranges, which the source does not state; a value can be the end of its range.

What was measured:
HCT-15 colon = assay: NCI-60 cell line screen, 48 h
U251 CNS = assay: NCI-60 cell line screen, 48 h

With `CN(O)C(=O)SCC(NC(=O)CCC(N)C(=O)O)C(=O)NCC(=O)O` (configuration not stated) the TGI (HCT-15 colon) was > 2 µM, 116 µM, > 2 mM and the TGI (U251 CNS) was > 2 µM, 148 µM, > 2 mM.
